Where two headings read alike, the source gives them in different places.
Tests used:
[1] = system: Ambrosia elatior (AMBEL, common ragweed), PPO resistant biotype 3 that contains the R98L mutation (w.5); conditions: scale 0 to 100
From the text: (§1) The culture containers used were plastic flowerpots containing loamy sand with approximately 3.0% of humus as the substrate. The seeds of the test plants were sown separately for each species and/or resistant biotype. For the pre-emergence treatment, the active ingredients, which had been suspended or emulsified in water, were applied directly after sowing by means of finely distributing nozzles. The containers were irrigated gently to promote germination and growth and subsequently covered with transparent plastic hoods until the plants had rooted.
(§2) This cover caused uniform germination of the test plants, unless this had been impaired by the active ingredients. For the post-emergence treatment, the test plants were first grown to a height of 3 to 15 cm, depending on the plant habit, and only then treated with the active ingredients which had been suspended or emulsified in water. For this purpose, the test plants were either sown directly and grown in the same containers, or they were first grown separately as seedlings and transplanted into the test containers a few days prior to treatment. Depending on the species, the plants were kept at 10-25° C. or 20-35° C., respectively. The test period extended over 2 to 4 weeks. During this time, the plants were tended, and their response to the Individual treatments was evaluated.
(§3) The evaluation was carried out by using a scale from 0 to 100. 100 means no emergence of the plants or complete destruction of at least the above-ground parts, and 0 means no damage, or normal course of growth.
(§4) The plants used in a first greenhouse experiment were of the following species and biotype (Ambrosia eliator mentioned below is to be understood being a variety of Ambrosia artemisilfolia): […]

[2] = system: Ambrosia elatior (AMBEL, common ragweed), PPO resistant biotype 4 that contains the R98L mutation (w.6); conditions: scale 0 to 100
From the text: as §1, §2, §3, §4

CCOC(=O)COc1ncccc1Oc1cc(-n2c(=O)cc(C(F)(F)F)n(C)c2=O)c(F)cc1Cl [compound (I).1]
100%: Weed control (%) w.5 ([1]; use rate 1 g/ha) | Weed control (%) w.5 ([1]; use rate 2 g/ha) | Weed control (%) w.6 ([2]; use rate 1 g/ha) | Weed control (%) w.6 ([2]; use rate 2 g/ha)
